# Assay results: the supplement of paper PMC8728848
# The list shows a part of the results.
# Key:
# Assay in all cases: glycan array binding signal (z-score within array); higher = stronger binding
# Conditions in all cases: glycan notation: IUPAC condensed, linker removed; mutation: R85A
# [1] = biological target: Neu5Ac(a2-6)Gal(b1-4)GlcNAc(b1-2)Man(a1-3)Man(b1-4)GlcNAc(b1-4)GlcNAc
# How it was run: (§1)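 The binding signal is a Z-score computed within each array and averaged over linkers. Arrays of the same protein sequence at different concentrations or buffers were also averaged together. Data originate from 3228 arrays in the Consortium for Functional Glycomics database, kept only where the protein sequence was available.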
# [2] = biological target: Neu5Ac(a2-6)Gal(b1-4)GlcNAc(b1-2)Man(a1-3)[Gal(b1-4)GlcNAc(b1-2)Man(a1-6)]Man(b1-4)GlcNAc(b1-4)GlcNAc
# How it was run: as §1
# [3] = biological target: Neu5Ac(a2-6)Gal(b1-4)GlcNAc(b1-2)Man(a1-3)[GlcNAc(b1-2)Man(a1-6)]Man(b1-4)GlcNAc(b1-4)GlcNAc
# How it was run: as §1
# [4] = biological target: Neu5Ac(a2-6)Gal(b1-4)GlcNAc(b1-2)Man(a1-3)[GlcNAc(b1-2)Man(b1-4)GlcNAc(b1-2)Man(a1-6)]Man(b1-4)GlcNAc(b1-4)GlcNAc
# How it was run: as §1
# [5] = biological target: Neu5Ac(a2-6)Gal(b1-4)GlcNAc(b1-2)Man(a1-3)[Man(a1-6)]Man(b1-4)GlcNAc(b1-4)GlcNAc
# How it was run: as §1
# [6] = biological target: Neu5Ac(a2-6)Gal(b1-4)GlcNAc(b1-2)Man(a1-3)[Neu5Ac(a2-6)Gal(b1-4)GlcNAc(b1-2)Man(a1-6)]Man(b1-4)GlcNAc(b1-4)GlcNAc
# How it was run: as §1
# [7] = biological target: Neu5Ac(a2-6)Gal(b1-4)GlcNAc(b1-2)Man(a1-6)Man(b1-4)GlcNAc(b1-4)GlcNAc
# How it was run: as §1
# [8] = biological target: Neu5Ac(a2-6)Gal(b1-4)GlcNAc(b1-2)Man(a1-6)[Gal(b1-4)GlcNAc(b1-2)Man(a1-3)]Man(b1-4)GlcNAc(b1-4)GlcNAc
# How it was run: as §1
# [9] = biological target: Neu5Ac(a2-6)Gal(b1-4)GlcNAc(b1-2)Man(a1-6)[GlcNAc(b1-2)Man(a1-3)]Man(b1-4)GlcNAc(b1-4)GlcNAc
# How it was run: as §1
# [10] = biological target: Neu5Ac(a2-6)Gal(b1-4)GlcNAc(b1-2)Man(a1-6)[Man(a1-3)]Man(b1-4)GlcNAc(b1-4)GlcNAc
# How it was run: as §1
# [11] = biological target: Neu5Ac(a2-6)Gal(b1-4)GlcNAc(b1-3)Gal(b1-3)GlcNAc
# How it was run: as §1
# [12] = biological target: Neu5Ac(a2-6)Gal(b1-4)GlcNAc(b1-3)Gal(b1-4)GlcNAc
# How it was run: as §1
# [13] = biological target: Neu5Ac(a2-6)Gal(b1-4)GlcNAc(b1-3)Gal(b1-4)GlcNAc(b1-3)Gal(b1-4)GlcNAc
# How it was run: as §1
# [14] = biological target: Neu5Ac(a2-6)Gal(b1-4)GlcNAc(b1-3)Gal(b1-4)[Fuc(a1-3)]GlcNAc(b1-3)Gal(b1-4)[Fuc(a1-3)]GlcNAc
# How it was run: as §1
# [15] = biological target: Neu5Ac(a2-6)Gal(b1-4)GlcNAc(b1-3)GalNAc
# How it was run: as §1
# [16] = biological target: Neu5Ac(a2-6)Gal(b1-4)GlcNAc6S
# How it was run: as §1
# Neu5Ac(a2-6)GalNAc = biological target: Neu5Ac(a2-6)GalNAc
# How it was run: as §1
# [17] = biological target: Neu5Ac(a2-6)GalNAc(b1-4)GlcNAc
# How it was run: as §1
# [18] = biological target: Neu5Ac(a2-6)GlcNAc(b1-4)GlcNAc
# How it was run: as §1
# [19] = biological target: Neu5Ac(a2-6)GlcNAc(b1-4)GlcNAc(b1-4)GlcNAc
# How it was run: as §1
# Neu5Ac(a2-8)Neu5Ac = biological target: Neu5Ac(a2-8)Neu5Ac
# How it was run: as §1
# [20] = biological target: Neu5Ac(a2-8)Neu5Ac(a2-3)Gal(b1-4)Glc
# How it was run: as §1
# [21] = biological target: Neu5Ac(a2-8)Neu5Ac(a2-3)[GalNAc(b1-4)]Gal(b1-4)Glc
# How it was run: as §1
# [22] = biological target: Neu5Ac(a2-8)Neu5Ac(a2-8)Neu5Ac
# How it was run: as §1
# [23] = biological target: Neu5Ac(a2-8)Neu5Ac(a2-8)Neu5Ac(a2-3)Gal(b1-4)Glc
# How it was run: as §1
# [24] = biological target: Neu5Ac(a2-8)Neu5Ac(a2-8)Neu5Ac(a2-3)[GalNAc(b1-4)]Gal(b1-4)Glc
# How it was run: as §1
# [25] = biological target: Neu5Ac(a2-8)Neu5Ac(a2-8)Neu5Ac(a2-8)Neu5Ac(a2-3)[GalNAc(b1-4)]Gal(b1-4)Glc
# How it was run: as §1
# [26] = biological target: Neu5Ac(b2-6)Gal(b1-4)GlcNAc
# How it was run: as §1
# Neu5Ac(b2-6)GalNAc = biological target: Neu5Ac(b2-6)GalNAc
# How it was run: as §1
# [27] = biological target: Neu5Ac9Ac(a2-3)Gal(b1-3)GlcNAc
# How it was run: as §1
# [28] = biological target: Neu5Ac9Ac(a2-3)Gal(b1-4)GlcNAc
# How it was run: as §1
# [29] = biological target: Neu5Ac9Ac(a2-6)Gal(b1-4)GlcNAc
# How it was run: as §1
# [30] = biological target: Neu5Gc(a2-3)Gal(b1-3)GlcNAc
# How it was run: as §1
# [31] = biological target: Neu5Gc(a2-3)Gal(b1-3)[Fuc(a1-4)]GlcNAc
# How it was run: as §1
# Neu5Gc(a2-3)Gal(b1-4)Glc = biological target: Neu5Gc(a2-3)Gal(b1-4)Glc
# How it was run: as §1
# [32] = biological target: Neu5Gc(a2-3)Gal(b1-4)GlcNAc
# How it was run: as §1
# [33] = biological target: Neu5Gc(a2-3)Gal(b1-4)[Fuc(a1-3)]GlcNAc
# How it was run: as §1
# [34] = biological target: Neu5Gc(a2-6)Gal(b1-4)GlcNAc
# How it was run: as §1
# Neu5Gc(a2-6)GalNAc = biological target: Neu5Gc(a2-6)GalNAc
# How it was run: as §1
# [35] = biological target: Neu5Gc(b2-6)Gal(b1-4)GlcNAc
# How it was run: as §1
binder,measurement,setting,value
"rAAL (Agrocybe aegerita), Q6WY08 (protein) MQGVNIYNISAGTSVDLAAPVTTGDIVTFFSSALNLNAGAGNPNNTTLNLFAENGAYLLHIAFRLQENVIIFNSRQPDGPWLVEQAVSDVANQFAGIDGKAMVTVFDHGDKYQVVINEKTVIQYTKQISGLTLSLSYNATEETSIFSTVVEAVTYTGLALEHHHHHH",glycan array binding signal (z-score),[1],-0.124
same,glycan array binding signal (z-score),[2],-0.118
same,glycan array binding signal (z-score),[3],-0.133
same,glycan array binding signal (z-score),[4],-0.112
same,glycan array binding signal (z-score),[5],-0.139
same,glycan array binding signal (z-score),[6],-0.121
same,glycan array binding signal (z-score),[7],-0.136
same,glycan array binding signal (z-score),[8],-0.14
same,glycan array binding signal (z-score),[9],-0.138
same,glycan array binding signal (z-score),[10],-0.132
same,glycan array binding signal (z-score),[11],-0.135
same,glycan array binding signal (z-score),[12],-0.114
same,glycan array binding signal (z-score),[13],-0.127
same,glycan array binding signal (z-score),[14],-0.13
same,glycan array binding signal (z-score),[15],1.17
same,glycan array binding signal (z-score),[16],-0.149
same,glycan array binding signal (z-score),Neu5Ac(a2-6)GalNAc,-0.134
same,glycan array binding signal (z-score),[17],-0.132
same,glycan array binding signal (z-score),[18],-0.135
same,glycan array binding signal (z-score),[19],-0.128
same,glycan array binding signal (z-score),Neu5Ac(a2-8)Neu5Ac,-0.125
same,glycan array binding signal (z-score),[20],0.307
same,glycan array binding signal (z-score),[21],-0.136
same,glycan array binding signal (z-score),[22],-0.139
same,glycan array binding signal (z-score),[23],-0.084
same,glycan array binding signal (z-score),[24],-0.128
same,glycan array binding signal (z-score),[25],-0.125
same,glycan array binding signal (z-score),[26],-0.123
same,glycan array binding signal (z-score),Neu5Ac(b2-6)GalNAc,-0.13
same,glycan array binding signal (z-score),[27],-0.149
same,glycan array binding signal (z-score),[28],-0.129
same,glycan array binding signal (z-score),[29],-0.118
same,glycan array binding signal (z-score),[30],-0.119
same,glycan array binding signal (z-score),[31],-0.139
same,glycan array binding signal (z-score),Neu5Gc(a2-3)Gal(b1-4)Glc,-0.144
same,glycan array binding signal (z-score),[32],-0.13
same,glycan array binding signal (z-score),[33],-0.128
same,glycan array binding signal (z-score),[34],-0.132
same,glycan array binding signal (z-score),Neu5Gc(a2-6)GalNAc,-0.135
same,glycan array binding signal (z-score),[35],-0.106
